Experimental data from PubChem BioAssay (Tox21).
Where “and” joins values, the source holds several entries; their conditions need not be identical. Equal values may be shown once. This list was built around the results that the source calls inconclusive (neither active nor inactive); the mix of calls is not that of the screen. For some assays here: Potencies of inconclusive entries are doubtful fits and often do not repeat. Some structures have more than one record in an assay (separate samples or runs), and their calls can disagree. Calls of active or inactive are those of the source. Unless noted, the call rests on the fitted dose curve; in most records, active means well fitted curve in the direction sought with a large enough effect in the repeat runs; inconclusive means weak or mixed curves; inactive means no such curve, though single readings can be large; an effect the other way counts as inactive or inconclusive.

Assays:
[1] = qHTS assay to identify small molecule antagonists of the thyroid receptor (TR) signaling pathway - cell viability counter screen (AID 743064); details: GH3.TRE-Luc viability, CellTiter-Fluor, 24 h; activity change, negative = cytotoxic: at 70.3 µM (top of the series) unless noted; further: nearly all actives have a fitted effect of over 50% in size; further: potency means the concentration at half of the fitted maximal effect
In short: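 Rat GH3 pituitary tumor cells stably expressing two TR response elements driving luciferase were plated, rested 4 h, then dosed with library compounds and T3 (1 nM final). After 23.5 h at 37 °C, CellTiter-Fluor was added for 30 min and fluorescence recorded.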

[2] = qHTS assay to identify small molecule antagonists of the thyroid receptor (TR) signaling pathway (AID 743065); further: nearly all actives have a fitted effect of over 55% in size; further: potency means the concentration at half of the fitted maximal effect; on activity, negative = inhibition: on the % scale 0 is the no-effect control and ±100 the full control effect
In short: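 GH3.TRE-Luc rat pituitary cells (two TREs driving luciferase) were dosed with compound, then stimulated with 1 nM T3 (final) for 23.5 h at 37 C. ONE-Glo luminescence was the read-out, with CellTiter-Fluor fluorescence as the cytotoxicity counter-screen.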

[3] = molecular target: Estrogen receptor (Homo sapiens) (UniProt P03372); assay: qHTS assay to identify small molecule antagonists of the estrogen receptor alpha (ER-alpha) signaling pathway (AID 743069; active means well fitted curve in the direction sought with a large enough effect in the signal ratio in the repeat runs, not every such curve was filed as active; inconclusive means weak or mixed curves, or effect the other way; inactive means no such curve, though single readings can be large or run the other way; the % refers to the signal ratio; further: potency means the concentration at half of the fitted maximal effect; on activity, negative = inhibition: on the % scale 0 is the no-effect control and ±100 the full control effect); details: HEK293 ER-alpha-UAS-bla, beta-lactamase ratio, antagonist mode; activity, negative = inhibition: at 69.4 µM (top of the series) unless noted
Sequence of UniProt P03372 (P03372 whole entry, looked up): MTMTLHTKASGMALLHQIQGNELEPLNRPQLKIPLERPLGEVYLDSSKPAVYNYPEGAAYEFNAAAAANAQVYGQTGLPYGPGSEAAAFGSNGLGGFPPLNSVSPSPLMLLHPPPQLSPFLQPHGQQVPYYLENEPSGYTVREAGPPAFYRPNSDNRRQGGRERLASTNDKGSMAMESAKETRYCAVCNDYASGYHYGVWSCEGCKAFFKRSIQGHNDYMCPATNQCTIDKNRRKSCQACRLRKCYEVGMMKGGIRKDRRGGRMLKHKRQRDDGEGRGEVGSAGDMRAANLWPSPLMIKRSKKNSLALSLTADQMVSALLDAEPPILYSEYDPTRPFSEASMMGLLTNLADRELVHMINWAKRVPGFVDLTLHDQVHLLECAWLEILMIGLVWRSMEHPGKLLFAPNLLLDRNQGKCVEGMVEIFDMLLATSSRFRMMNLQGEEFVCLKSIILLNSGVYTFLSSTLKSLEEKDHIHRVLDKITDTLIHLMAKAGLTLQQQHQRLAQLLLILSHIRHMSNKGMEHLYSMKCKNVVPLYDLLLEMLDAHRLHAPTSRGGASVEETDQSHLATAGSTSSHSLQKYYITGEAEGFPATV
In short: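 Reporter cells (ER-alpha-bla, HEK293 background) are conditioned overnight in stripped-serum medium (2% charcoal-stripped FBS). Compound and 17beta-estradiol exposure runs 18 hr at 37C, 5% CO2.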

[4] = qHTS assay to identify small molecule antagonists of the estrogen receptor alpha (ER-alpha) signaling pathway - cell viability counter screen (AID 743074; calls by dose curve;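 further: HEK293 cells carrying ER-alpha-UAS-bla reporter stimulated with 17beta-estradiol; nearly all actives have a fitted effect of over 45% in size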; further: potency means the concentration at half of the fitted maximal effect)
[5] = molecular target: Estrogen receptor (Homo sapiens) (UniProt P03372); assay: qHTS assay to identify small molecule agonists of the estrogen receptor alpha (ER-alpha) signaling pathway (AID 743075; calls by dose curve;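 further: HEK293 GripTite cells with ER-alpha and UAS-driven beta-lactamase reporter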; further: potency means the concentration at half of the fitted maximal effect)
Aromatase (Homo sapiens) = Aromatase (Homo sapiens) (UniProt P11511); assay: qHTS assay to identify aromatase inhibitors (AID 743083); details: MCF-7 aro ERE, testosterone-driven ERE luciferase, 24 h; activity, negative = inhibition: at 70.3 µM (top of the series); further: nearly all actives have a fitted effect of over 55% in size; further: potency means the concentration at half of the fitted maximal effect
Sequence of UniProt P11511 (P11511 whole entry, looked up): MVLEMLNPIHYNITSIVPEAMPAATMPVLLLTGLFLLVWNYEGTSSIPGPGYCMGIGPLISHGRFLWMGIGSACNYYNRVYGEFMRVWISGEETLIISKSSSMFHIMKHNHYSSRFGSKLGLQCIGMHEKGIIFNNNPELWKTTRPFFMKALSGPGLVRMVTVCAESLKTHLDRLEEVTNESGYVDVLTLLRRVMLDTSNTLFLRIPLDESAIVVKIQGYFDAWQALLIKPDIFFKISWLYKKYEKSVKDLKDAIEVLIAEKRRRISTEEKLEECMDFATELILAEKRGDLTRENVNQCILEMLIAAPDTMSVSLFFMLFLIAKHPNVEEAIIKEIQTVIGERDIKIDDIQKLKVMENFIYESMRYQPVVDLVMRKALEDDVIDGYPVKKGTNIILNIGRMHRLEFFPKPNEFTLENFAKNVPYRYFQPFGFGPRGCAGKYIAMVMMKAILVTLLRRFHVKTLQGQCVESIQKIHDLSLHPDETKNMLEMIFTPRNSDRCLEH

[6] = qHTS assay to identify aromatase inhibitors - cell viability counter screen (AID 743084); details: MCF-7 aro ERE viability, CellTiter-Fluor, 24 h; activity change, negative = cytotoxicity: at 70.3 µM (top of the series) unless noted;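 further: cells stimulated with testosterone during compound exposure; potency means the concentration at half of the fitted maximal effect; nearly all actives have a fitted effect of over 55% in size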
[7] = molecular target: Estrogen receptor (Homo sapiens) (UniProt P03372); assay: qHTS assay to identify small molecule agonists of the estrogen receptor alpha (ER-alpha) signaling pathway using the BG1 cell line (AID 743079); details: BG1Luc4E2 cells, ERE-luciferase agonist, 22 h; activation: at 70.3 µM (top of the series) unless noted; further: nearly all actives have a fitted effect of over 20% in size; further: potency means the concentration at half of the fitted maximal effect; on activation: on the % scale 0 is the no-effect control and ±100 the full control effect
[8] = qHTS assay to identify small molecule antagonists of the estrogen receptor alpha (ER-alpha) signaling pathway using the BG1 cell line - cell viability counter screen (AID 743081); details: BG1Luc4E2 viability, CellTiter-Fluor, 22 h; activity change, negative = cytotoxicity: at 70.3 µM (top of the series);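 further: compound given together with 17beta-estradiol as the ER stimulus; nearly all actives have a fitted effect of over 45% in size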; further: potency means the concentration at half of the fitted maximal effect
[9] = molecular target: Aryl hydrocarbon receptor (Homo sapiens) (UniProt P35869); assay: qHTS assay to identify small molecule that activate the aryl hydrocarbon receptor (AhR) signaling pathway (AID 743085); further: nearly all actives have a fitted effect of over 15% in size; further: potency means the concentration at half of the fitted maximal effect
Sequence of UniProt P35869 (P35869 whole entry, looked up): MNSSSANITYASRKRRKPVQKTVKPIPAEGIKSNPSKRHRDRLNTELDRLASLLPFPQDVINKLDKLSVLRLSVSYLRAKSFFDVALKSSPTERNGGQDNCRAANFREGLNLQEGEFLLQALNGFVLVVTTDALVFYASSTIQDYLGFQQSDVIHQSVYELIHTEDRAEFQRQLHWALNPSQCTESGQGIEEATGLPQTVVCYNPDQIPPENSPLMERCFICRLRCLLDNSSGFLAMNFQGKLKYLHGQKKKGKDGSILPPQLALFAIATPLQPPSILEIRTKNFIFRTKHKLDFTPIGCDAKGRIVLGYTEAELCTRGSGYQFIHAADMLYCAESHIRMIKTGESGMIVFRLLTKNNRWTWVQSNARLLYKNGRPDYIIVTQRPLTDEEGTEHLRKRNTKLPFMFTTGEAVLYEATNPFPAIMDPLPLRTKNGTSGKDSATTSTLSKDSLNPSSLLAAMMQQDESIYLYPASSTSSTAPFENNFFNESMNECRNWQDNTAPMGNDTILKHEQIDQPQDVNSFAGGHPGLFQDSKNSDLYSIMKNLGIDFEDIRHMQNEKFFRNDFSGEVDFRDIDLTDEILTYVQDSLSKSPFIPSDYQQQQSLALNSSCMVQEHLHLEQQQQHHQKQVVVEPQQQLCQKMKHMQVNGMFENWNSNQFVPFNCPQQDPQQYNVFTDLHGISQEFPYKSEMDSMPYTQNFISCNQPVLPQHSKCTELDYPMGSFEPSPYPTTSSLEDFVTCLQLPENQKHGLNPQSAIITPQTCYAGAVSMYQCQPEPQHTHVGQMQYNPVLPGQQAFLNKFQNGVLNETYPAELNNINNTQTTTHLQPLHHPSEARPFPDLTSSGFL
In short: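 Compounds were tested in HepG2 hepatocellular carcinoma cells harbouring a stably integrated luciferase gene under control of 20 DREs. Increased reporter signal after 24 h treatment at 37C was taken as AhR activation.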

[10] = qHTS assay to identify small molecule that activate the aryl hydrocarbon receptor (AhR) signaling pathway - cell viability counter screen (AID 743086); further: nearly all actives have a fitted effect of over 45% in size; further: potency means the concentration at half of the fitted maximal effect
In short: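 HepG2-AhR-luc (HG2L7.5c1) cells, 4000/well, treated 24 h at 37 C with compound; viability measured as CellTiter-Fluor fluorescence after 30 min in the same wells as the luciferase read.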

[11] = qHTS assay to identify small molecule antagonists of the estrogen receptor alpha (ER-alpha) signaling pathway using the BG1 cell line (AID 743080; calls by dose curve; further: nearly all actives have a fitted effect of over 25% in size; further: potency means the concentration at half of the fitted maximal effect); details: BG1Luc4E2 ERE-luciferase antagonist mode, luminescence; activity change, negative = inhibition: at 70.3 µM (top of the series) unless noted
In short: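 Antagonist mode: compounds in DMSO were pinned onto BG1-Luc-4E2 cells alongside 17beta-estradiol agonist, incubated 21.5 h, and ERE-driven luciferase measured with ONE-Glo. Cytotoxicity was multiplexed using CellTiter-Fluor fluorescence.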

[12] = test system: thyroid hormone receptor (rat, GH3 cells); assay: qHTS assay to identify small molecule agonists of the thyroid receptor (TR) signaling pathway (AID 743066; calls by dose curve; further: on the % scale 0 is the no-effect control and ±100 the full control effect); details: GH3.TRE-Luc cells, TR agonist luciferase, 24 h; activation: at 83.9 µM (top of the series) unless noted
[13] = molecular target: Peroxisome proliferator-activated receptor gamma (Homo sapiens) (UniProt P37231); assay: qHTS assay to identify small molecule agonists of the peroxisome proliferator-activated receptor gamma (PPARg) signaling pathway (AID 743094; active means well fitted activation curve with a large enough effect in the signal ratio in the repeat runs, not every such curve was filed as active; inconclusive means weak or mixed curves, or effect the other way; inactive means no such curve, though single readings can be large or run the other way; the % refers to the signal ratio; further: potency means the concentration at half of the fitted maximal effect); details: HEK293H PPARg-UAS-bla, beta-lactamase FRET ratio, 17 h; activation: at 57 µM (top of the series) unless noted
Sequence of UniProt P37231 (P37231 whole entry, looked up): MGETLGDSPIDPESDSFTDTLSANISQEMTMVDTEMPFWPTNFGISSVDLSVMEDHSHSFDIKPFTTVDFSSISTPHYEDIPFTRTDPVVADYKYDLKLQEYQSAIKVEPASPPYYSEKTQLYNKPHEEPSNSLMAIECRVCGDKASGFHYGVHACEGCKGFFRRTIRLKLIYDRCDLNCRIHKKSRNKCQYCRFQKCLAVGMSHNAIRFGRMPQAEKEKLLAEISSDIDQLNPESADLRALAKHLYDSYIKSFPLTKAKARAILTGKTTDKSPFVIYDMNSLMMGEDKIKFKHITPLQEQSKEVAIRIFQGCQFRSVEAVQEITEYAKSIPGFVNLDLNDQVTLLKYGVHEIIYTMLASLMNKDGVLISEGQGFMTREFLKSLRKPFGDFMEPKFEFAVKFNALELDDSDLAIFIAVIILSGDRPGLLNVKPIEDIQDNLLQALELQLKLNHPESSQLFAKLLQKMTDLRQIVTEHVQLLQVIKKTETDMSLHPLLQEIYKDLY
In short: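 Quantitative HTS agonist mode: stable HEK293H line with UAS-beta-lactamase reporter under PPARg control, 17 h compound exposure at 37C, fluorescence after 1 h FRET substrate loading at room temperature.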
Tags describe the fitted curve by direction and shape or compound fluorescence and quenching.

Compound: C=CC(=O)OCCCCO
- Potency [1]: inconclusive: 61.1 µM [cytotoxic, single point]
- Potency [2]: inconclusive: 61.1 µM [inhibitor]
- activity, negative = inhibition [3]: inconclusive: 55.3%
- Potency [4]: inactive
- Potency [5]: inconclusive: 54.9 µM
- Potency (Aromatase (Homo sapiens)): inconclusive: 30.6 µM [inhibitor, partial curve]
- Potency [6]: inconclusive: 61.1 µM [cytotoxic, single point]

Compound: Nc1cccnc1
- Potency [1]: inconclusive: 0.248 µM [rising, single point]
- Potency [2]: inactive
- Potency [7]: inactive
- Potency [8]: inconclusive: 3.93 µM [rising, full curve]
- Potency [9]: inconclusive: 55.5 µM [activator, partial curve, poor fit] and inactive

Compound: COC(C)(C)CCCC(C)C/C=C/C(C)=C/C(=O)OC(C)C (stereo not given)
- Potency [1]: inactive
- Potency [2]: inconclusive: 33.5 µM [inhibitor, single point]
- Potency [10]: inactive

Compound: Nc1ccccc1C(=O)OC/C=C/c1ccccc1
- Potency [1]: inconclusive: 68.7 µM [cytotoxic]
- Potency [2]: inconclusive: 68.7 µM [inhibitor, single point]
- Potency [3]: inconclusive: 24.6 µM
- Potency [7]: inconclusive: 68.7 µM [inhibitor, partial curve, poor fit]
- Potency [11]: inconclusive: 6.13 µM [rising, full curve]
- Potency [9]: active: 61.3 µM

Compound: C#C[C@]1(O)CC[C@H]2[C@@H]3CCC4=CC(=O)CC[C@]4(C)[C@H]3CC[C@@]21C
- Potency [1]: inactive
- Potency [2]: inconclusive: 5.31 µM [inhibitor, full curve] and inconclusive: 9.44 µM [inhibitor, full curve]
- Potency [8]: inconclusive: 0.0944 µM [rising, full curve, poor fit]

Compound: CCC(C)Nc1c([N+](=O)[O-])cc(C(C)(C)C)cc1[N+](=O)[O-] (stereo not given)
- Potency [1]: inconclusive: 68.6 µM [cytotoxic, single point]
- Potency [2]: inconclusive: 68.6 µM [inhibitor, single point]
- activation [12]: inconclusive: -5.64% [phenotype inactive]
- Potency [7]: active: 61.1 µM
- Potency [11]: inactive

Compound: CCCCC(C#N)(Cn1cncn1)c1ccc(Cl)cc1 (stereo not given)
- Potency [1]: inconclusive: 48.4 µM [cytotoxic, partial curve]
- Potency [2]: inconclusive: 54.3 µM [inhibitor, partial curve] and inconclusive: 17.2 µM [inhibitor, partial curve, poor fit]
- Potency [11]: active: 30.5 µM and active: 61.1 µM

Compound: Nc1ccc(-c2ccccc2)cc1
- Potency [1]: inconclusive: 70.5 µM [rising, single point]
- Potency [2]: inconclusive: 77 µM [inhibitor, partial curve, poor fit]
- Potency [7]: active: 25 nM and active: 10.9 µM
- Potency [9]: active: 9.69 µM

Compound: Oc1ccc([C@H]2CNCc3c2ccc(O)c3O)cc1O
- Potency [1]: inconclusive: 33.5 µM [cytotoxic, single point]
- Potency [2]: inconclusive: 33.5 µM [inhibitor, single point]
- Potency [4]: inconclusive: 10.7 µM [cytotoxic, single point]
- Potency [9]: inconclusive: 18.8 µM [activator, partial curve, poor fit]

Compound: ClC1=C(Cl)[C@]2(Cl)[C@H]3[C@H]([C@H]4C=C[C@H]3C4)[C@@]1(Cl)C2(Cl)Cl
- Potency [1]: inconclusive: 68.6 µM [cytotoxic, single point]
- Potency [2]: active: 68.6 µM
- Potency [4]: inactive
- Potency [7]: active: 27.3 µM
- Potency [8]: inactive
- Potency (Aromatase (Homo sapiens)): inactive

Compound: COC(=O)c1c(C(F)F)nc(C(F)(F)F)c(C2=NCCS2)c1CC(C)C
- Potency [1]: inconclusive: 68.6 µM [cytotoxic, single point]
- Potency [2]: inconclusive: 68.6 µM [inhibitor]
- Potency [5]: inactive
- Potency [11]: inactive
- Potency [13]: inactive

Compound: Nn1cnnc1
- Potency [1]: inactive
- Potency [2]: inactive
- Potency [4]: inactive

Compound: COc1c(C(C)(C)C)cc([N+](=O)[O-])c(C)c1[N+](=O)[O-]
- Potency [1]: inactive
- Potency [2]: inconclusive: 68 µM [inhibitor, single point]
- Potency [5]: active: 48.6 µM [activator]
- Potency (Aromatase (Homo sapiens)): inconclusive: 30.4 µM [inhibitor, partial curve, poor fit]

Compound: O=[N+]([O-])c1c2ccccc2cc2ccccc12
- Potency [1]: inconclusive: 27 µM
- Potency [2]: inconclusive: 34.4 µM [inhibitor, partial curve, poor fit]
- Potency [3]: inconclusive: 21.9 µM
- Potency [4]: inconclusive: 21.6 µM [cytotoxic, single point]
- Potency [5]: inconclusive: 21.9 µM
- Potency [7]: active: 42.9 µM
- Potency [11]: inconclusive: 12 µM [rising, full curve]
- Potency [8]: inconclusive: 67.8 µM [cytotoxic, single point]
- Potency [9]: active: 15.8 µM
- Potency [13]: inconclusive: 15.3 µM [activator]

Compound: ClP(Cl)(Cl)(Cl)Cl
- Potency [1]: inconclusive: 69.1 µM [cytotoxic, single point]
- Potency [2]: inconclusive: 69.1 µM [inhibitor, single point]
- Potency [11]: inactive
- Potency [13]: inconclusive: 62.1 µM [activator, single point]

Compound: COc1cc(CC(C)N)cc2c1OCO2 (stereo not given)
- Potency [1]: inconclusive: 80.3 µM [cytotoxic, single point]
- Potency [2]: inconclusive: 50.7 µM [inhibitor, partial curve, poor fit]
- Potency [3]: inconclusive: 25.6 µM [cytotoxic, partial curve, poor fit]
- Potency [4]: inconclusive: 25.6 µM [cytotoxic, single point]
- Potency [11]: inactive
- Potency [8]: inconclusive: 0.569 µM [cytotoxic, full curve, poor fit]

Compound: CCNc1nc(NC(C)(C)C)nc(SC)n1
- Potency [1]: inconclusive: 61.1 µM [cytotoxic, single point]
- Potency [2]: inconclusive: 60.3 µM [inhibitor, single point] and inconclusive: 77 µM [inhibitor, single point]
- Potency [7]: inconclusive: 48.6 µM [inhibitor, partial curve, poor fit]
- Potency [9]: active: 1.52 µM

Compound: Nc1ccc(N=Nc2ccc(-c3ccc(N=Nc4c(S(=O)(=O)O)cc5cc(S(=O)(=O)O)c(N=Nc6ccccc6)c(O)c5c4N)cc3)cc2)c(N)c1
- Potency [1]: inconclusive: 15.7 µM [cytotoxic, single point]
- Potency [2]: inconclusive: 14 µM [inhibitor, partial curve]
- activity, negative = inhibition [3]: inconclusive: 48.9%
- Potency [4]: inconclusive: 28.1 µM [rising, single point]
- Potency (Aromatase (Homo sapiens)): inconclusive: 44.2 µM [inhibitor, single point]
- Potency [10]: active: 39.4 µM
- activation [13]: inconclusive: -14.6%

Compound: O=C(O)CCCc1ccc(N(CCCl)CCCl)cc1
- Potency [1]: inconclusive: 29.8 µM [cytotoxic, single point] and inconclusive: 48.8 µM [cytotoxic, partial curve, poor fit]
- Potency [2]: inconclusive: 33.5 µM [inhibitor, single point]
- Potency [4]: inconclusive: 24.5 µM [cytotoxic, single point]
- Potency [5]: inconclusive: 5.52 µM [falling, full curve]
- activation [7]: inconclusive: -19.7% [phenotype inactive] [at 95 µM]
- Potency [6]: inconclusive: 43.5 µM [cytotoxic, partial curve]
- activation [13]: inconclusive: -10.3% [at 78.9 µM]

Compound: CCCN(CCC)c1c([N+](=O)[O-])cc(C(C)C)cc1[N+](=O)[O-]
- Potency [1]: inconclusive: 59.8 µM [cytotoxic, single point] and active: 61.1 µM
- Potency [2]: inconclusive: 67.1 µM [inhibitor, single point]
- activation [12]: inconclusive: -6.51% [phenotype inactive]
- Potency [3]: inconclusive: 30.9 µM [inhibitor]
- Potency [4]: inconclusive: 53.8 µM [cytotoxic, single point]

Compound: Cc1ccc2c(C)cccc2c1
- Potency [1]: inactive
- Potency [2]: inactive
- Potency [11]: inactive
- activation [13]: inconclusive: -1.66%

Compound: COc1cc(N)c(Cl)cc1C(=O)NC1CN2CCC1CC2 (stereo not given)
- Potency [1]: inactive
- Potency [2]: inconclusive: 16.8 µM [inhibitor, partial curve, poor fit]

Compound: Cn1cc(-c2ccccc2)c(=O)c(-c2cccc(C(F)(F)F)c2)c1
- Potency [1]: inconclusive: 61.1 µM [cytotoxic, partial curve, poor fit]
- Potency [2]: inconclusive: 53.2 µM [inhibitor, partial curve] and inconclusive: 68.6 µM [inhibitor]
- Potency [4]: inconclusive: 19 µM [cytotoxic, single point] and inactive
- Potency [6]: inconclusive: 37.6 µM [cytotoxic, partial curve, poor fit] and inconclusive: 61.1 µM [cytotoxic, single point]

Compound: O=C(N[C@H](c1ccccc1)[C@@H]1CN2CCC1CC2)c1c(Cl)ccc(C(F)(F)F)c1Cl
- Potency [1]: active: 15.6 µM
- Potency [2]: active: 39.2 µM
- activation [12]: inconclusive: -9.71% [phenotype inactive] [at 95.2 µM]
- Potency [8]: inconclusive: 110 µM [cytotoxic, single point]
- Potency (Aromatase (Homo sapiens)): inconclusive: 98.4 µM [inhibitor, single point]
- Potency [6]: inconclusive: 98.4 µM [cytotoxic, partial curve, poor fit]
- Potency [10]: active: 39.2 µM
- Potency [13]: inconclusive: 17.6 µM [inhibitor, partial curve]

Compound: CC(C)(C)c1cc([N+](=O)[O-])cc([N+](=O)[O-])c1O
- Potency [1]: active: 8.61 µM
- Potency [2]: active: 3.43 µM
- activation [12]: inconclusive: -9.09% [phenotype inactive]
- Potency [4]: inconclusive: 1.38 µM [cytotoxic, full curve, poor fit]
- Potency [8]: active: 21.6 µM
- Potency [13]: inconclusive: 6.15 µM [inhibitor, full curve]
